# The list shows a part of the results. Repeats are few or missing, and single values can be far off.
# Test system: WM3526
# Assay: cell count relative to DMSO control; melanoma cells; higher = more viable cells
# Conditions: library dose: standard library concentration; 72 h
# 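Note: cells treated in 1,536-well plates, then fixed and DAPI-stained, with nuclei counted from automated high-throughput microscope images.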
row,Structure (SMILES),cell count
1,"C[As](C)SC[C@H](NC(=O)CC[C@H](N)C(=O)O)C(=O)NCC(=O)O [Darinaparsin] + O=c1cc(-c2cccc3c2Sc2ccccc2S3)oc(N2CCOCC2)c1 [KU55933] (first compound 2 µM, partner dose 5 µM)",58%
2,"Cn1cc(C2=C(c3cn(C4CCN(Cc5ccccn5)CC4)c4ccccc34)C(=O)NC2=O)c2ccccc21 [Enzastaurin] + Cc1cc(N2CCOCC2)cc2[nH]c(-c3c(NC[C@@H](O)c4cccc(Cl)c4)cc[nH]c3=O)nc12 [BMS536924] (first compound 4 µM, partner dose 1 µM)",85.3%
3,"Cn1cc(C2=C(c3cn(C4CCN(Cc5ccccn5)CC4)c4ccccc34)C(=O)NC2=O)c2ccccc21 [Enzastaurin] + NC(=O)Nc1cc(-c2cccc(F)c2)sc1C(=O)N[C@H]1CCCNC1 [AZD7762] (first compound 4 µM, partner dose 0.1 µM)",67.8%
4,"N.N.[Cl][Pt][Cl] [cisplatin] + CC(C)(C)c1cnc(CSc2cnc(NC(=O)C3CCNCC3)s2)o1 [SNS-032] (first compound 8 µM, partner dose 0.05 µM)",82.1%
5,"N.N.[Cl][Pt][Cl] [cisplatin] + OCCn1cc(-c2cnc3nnn(Cc4ccc5ncccc5c4)c3n2)cn1 [PF04217903] (first compound 8 µM, partner dose 5 µM)",107%
6,"Cn1cc(C2=C(c3cn(C4CCN(Cc5ccccn5)CC4)c4ccccc34)C(=O)NC2=O)c2ccccc21 [Enzastaurin] + N.N.[Cl][Pt][Cl] [cisplatin] (first compound 4 µM, partner dose 8 µM)",123%
7,"C[C@]12O[C@H](C[C@]1(O)CO)n1c3ccccc3c3c4c(c5c6ccccc6n2c5c31)CNC4=O [Lestaurtinib] + OCCn1cc(-c2cnc3nnn(Cc4ccc5ncccc5c4)c3n2)cn1 [PF04217903] (first compound 0.02 µM, partner dose 5 µM)",61.9%
8,"Cn1cc(C2=C(c3cn(C4CCN(Cc5ccccn5)CC4)c4ccccc34)C(=O)NC2=O)c2ccccc21 [Enzastaurin] + COc1ccc(Cl)c(Nc2nc3ccccc3nc2NS(=O)(=O)c2cccc(NC(=O)C(C)(C)N)c2)c1 [XL147] (first compound 4 µM, partner dose 4 µM)",91%
9,"C[As](C)SC[C@H](NC(=O)CC[C@H](N)C(=O)O)C(=O)NCC(=O)O [Darinaparsin] + O=C(O)c1ccc(-c2c[nH]c3ncc(-c4ccccc4)cc23)cc1C1CCCC1 [GSK650394] (first compound 2 µM, partner dose 0.8 µM)",68.2%
10,"C[As](C)SC[C@H](NC(=O)CC[C@H](N)C(=O)O)C(=O)NCC(=O)O [Darinaparsin] + COc1cc2ncnc(Nc3ccc(Oc4ccccc4)cc3)c2cc1OC [SrcI1] (first compound 2 µM, partner dose 10 µM)",51.2%
11,"N.N.[Cl][Pt][Cl] [cisplatin] + C=CCNC1=C2C[C@@H](C)C[C@H](OC)[C@H](O)[C@@H](C)/C=C(\C)[C@H](OC(N)=O)[C@@H](OC)/C=C\C=C(/C)C(=O)NC(=CC1=O)C2=O [Tanespimycin] (first compound 8 µM, partner dose 0.01 µM)",79.4%
12,"C[C@]12O[C@H](C[C@]1(O)CO)n1c3ccccc3c3c4c(c5c6ccccc6n2c5c31)CNC4=O [Lestaurtinib] + Cn1c(Nc2ccc(C(F)(F)F)cc2)nc2cc(Oc3ccnc(-c4ncc(C(F)(F)F)[nH]4)c3)ccc21 [CHIR265] (first compound 0.02 µM, partner dose 0.4 µM)",46%

# Reference: the supplement of paper PMC4604168 (melanoma cell lines)
